The values that follow come from PubChem BioAssay AID1346428 (National Center for Advancing Translational Sciences (NCATS), 2018).

The structures appear in SMILES notation. Hit rate of the full screen: of about 48,000 compounds, about 1,200 (2.5%) were called active. Roughly 2% stayed inconclusive and do not appear here.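 The calls were made as follows: active = activation of at least 60% and not above a set upper limit (about 1 call in 100 departs from these limits); inconclusive = activation of 40% to 60%, or above that upper limit; inactive = activation under 40%.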 Some of the results follow.

The target of this assay is Probable G-protein coupled receptor 32 (Homo sapiens) (UniProt O75388). The experiment in a line: qHTS for Agonists of Human Resolvin D1 Receptor DRV1. Also: 0% is about no effect. The note with it: CHO-K1 GPR32 beta-arrestin PathHunter luminescence, 90 min; at 76.9 µM; hits give high values; zero percent set by DMSO-only wells. In short, it runs like this: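 PathHunter beta-arrestin recruitment in CHO-K1 cells stably expressing ProLink-tagged GPR32. Cells were exposed to compound for 90 min at 37 C, then chemiluminescence was read after 1 h detection at ambient temperature; DMSO served as basal control.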
UniProt O75388, sequence (O75388 whole entry, looked up): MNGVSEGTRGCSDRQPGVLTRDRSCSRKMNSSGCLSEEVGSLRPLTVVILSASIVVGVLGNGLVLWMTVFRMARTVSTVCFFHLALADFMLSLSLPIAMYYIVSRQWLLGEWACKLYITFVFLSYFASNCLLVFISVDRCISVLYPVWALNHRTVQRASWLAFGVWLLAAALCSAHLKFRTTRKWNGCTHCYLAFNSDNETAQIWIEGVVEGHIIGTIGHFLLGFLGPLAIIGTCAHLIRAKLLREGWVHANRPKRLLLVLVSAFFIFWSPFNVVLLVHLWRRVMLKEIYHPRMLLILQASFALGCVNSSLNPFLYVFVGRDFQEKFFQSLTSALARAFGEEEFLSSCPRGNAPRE
(In qHTS, concentration-response curves come from the screen itself.)
On to `Cc1ccc(Cl)cc1N1CCN(C(=O)C2CCN(S(=O)(=O)c3cn(C)cn3)CC2)CC1`, for which the activation is inactive: -10.9%. In the case of `Cc1cccc(N2CCN(CCCNC(=O)Cn3ncc4c([nH]c5ccccc54)c3=O)CC2C)c1` (centres undefined) it was inactive: -14.8%; in that of `Cc1cc(C)c2c(n1)nn1c(C)c(CCC(=O)Nc3cccc(C)c3C)c(C)nc21`, inactive: 11.5%; in that of `Cc1ccc(-c2nc3cccc(C)n3c2Nc2ccc3c(c2)OCCO3)cc1`, inactive: -23.6%.

`COc1ccc(N(C)C(=O)Cn2cnc3sc(C)c(S(=O)(=O)N4CCN(c5ncccn5)CC4)c3c2=O)cc1`: the activation is inactive: -27.8%.

Turning to `O=C(NCCS(=O)(=O)N1CCN(c2cccc(Cl)c2)CC1)C(c1ccccc1)c1ccccc1`, the activation was inactive: -25.5%. As for `CCOCCCn1c(=N)c(C(=O)NC2CCCCC2)cc2c(=O)n3ccccc3nc21`, the activation is inactive: 21.3%.

`CCc1nn(CC(=O)NCc2ccccc2)c(=O)c2cccn12`: the activation was inactive: -4.93%.

As for `CCOC(=O)c1ccc(N2C(=O)c3[nH]nc(-c4ccc(OC)cc4)c3C2c2cccc(O)c2)cc1` (centres undefined), the activation is inactive: -7.33%.

As to `CCc1cccc(NC(=O)CSc2ncc3c(n2)-c2cc(Cl)ccc2N(C)S3(=O)=O)c1`, the activation was inactive: -14.1%. Under `COc1ccccc1CNC(=O)CCn1c(=O)c2ccccc2n(CC(=O)Nc2cc(Cl)ccc2C)c1=O` stands inactive: -2.53%. For `COc1ccccc1NC(=O)Cn1nnc(C(=O)NCc2cccs2)c1N`, the activation was inactive: 43%. With `Cc1ccc(Cl)cc1N1CCN(C(=O)Cn2nc(C)c3sc4ccccc4c3c2=O)CC1`, the activation is inactive: -7.63%.

As to `Cc1ccc(C2NC(=O)c3n[nH]c(-c4cccs4)c32)cc1` (centres undefined), the activation is active: 120%. In the case of `C[C@]12C=CC(=O)C=C1[C@@H](F)C[C@@H]1[C@@H]2[C@@H](O)C[C@@]2(C)[C@H]1CC[C@]2(O)C(=O)CO` it was inactive: 8.03%; in that of `CCC(C)NC(=O)CCSc1nc(-c2ccc3c(c2)OCO3)cc(C(F)(F)F)n1` (centres undefined), inactive: -0.965%. In the case of `COc1ccc(NC(=O)CCS(=O)(=O)c2nc(-c3ccc4c(c3)OCO4)cc(C(F)(F)F)n2)cc1OC` it was inactive: -8.68%; in that of `O=C(Nc1cccc(C(=O)OCc2cc(=O)n3c4c(sc3n2)CCCC4)c1)c1cccc(F)c1`, inactive: -17.4%. Under `COC(=O)c1c(NC(=O)Cc2coc3cc(C)cc(C)c23)sc2c1CCC2` stands inactive: 6.45%; under `COc1cc(C(=O)NCc2ccc3c(c2)CCN3C(=O)c2ccc(Cl)cc2)cc(OC)c1OC`, inactive: -21.7%.

Turning to `Cc1ccc(NC(=O)CSc2nc(=O)n(Cc3ccccn3)c3c2CCC3)cc1F`, the activation was inactive: 18.8%. Regarding `Cc1ccc(NC(=O)CSc2nc3ccc(NC(=O)c4ccco4)cc3s2)cc1`, the activation was active: 98.5%. Under `COc1ccc(C2CC(=O)c3cc(-c4nc(-c5cccc([N+](=O)[O-])c5)cs4)c(=O)n(-c4cccc(C)c4)c3C2)cc1` (centres undefined) stands inactive: 12.5%; under `COCCNC(=O)c1c(NC(=O)c2cc(=O)c3cc(C)cc(C)c3o2)sc2c1CCCC2`, inactive: -14.4%; under `CCc1ccc(NC(=O)c2cnc3c(-c4ccccc4)c(C)nn3c2C)cc1`, inactive: -6.36%. In the case of `CC(=O)c1ccc(NC(=O)c2ccc(-c3nc(CSc4ccc(C)cc4)c(C)o3)cc2)cc1`, the activation is inactive: -3.97%. On to `O=C(Nc1ccccc1Cl)N1CCC2(CC1)Oc1ccccc1C(=O)N2Cc1ccc(F)cc1`, for which the activation was inactive: -10.3%. Under `COc1cccc(Cn2c(C)c(CNCc3cccc(C)c3)c(C(=O)O)c2C)c1` stands inactive: -1.27%; under `O=C(CCC1N=C2c3ccccc3N=C(SCc3ccc(Cl)cc3)N2C1=O)NCc1cccs1` (centres undefined), inactive: -20.5%; under `COc1ccc(OCC(O)Cn2c(=N)n(CCN3CCCCC3)c3ccccc32)cc1` (centres undefined), inactive: 4.48%. Under `Cc1ccc(NS(=O)(=O)c2ccc3oc(=O)c4ncn(C)c4c3c2)cc1C` stands inactive: 5.19%; under `CN(C)c1ccc(CNC(=O)CN2C(=O)C3CCCCN3c3ccc(C(=O)N4CCCC4)cc32)cc1` (centres undefined), inactive: -10.8%. Turning to `CCC(=O)N1CCc2cc(S(=O)(=O)NC(CC(C)C)C(=O)Nc3cccc(C)c3C)ccc21` (centres undefined), the activation was inactive: -8.98%.

Turning to `COc1ccccc1C(=O)n1nc(-c2ccccc2)nc1NCc1ccc(Cl)cc1`, the activation is inactive: 3.11%. Under `O=C(CCc1ccccc1)NC1CC(=O)N(c2cccc(F)c2)C1` (centres undefined) stands inactive: -5.72%; under `Cc1ccc(N2CCN(C(=O)c3cccn4c(=O)c5ccc(Cl)cc5nc34)CC2C)cc1` (centres undefined), inactive: -11.2%. Under `CCC(C)NC(=O)c1cc2n(n1)CCCN(Cc1ccc(C)cc1)C2=O` (centres undefined) stands inactive: 24%; under `Cc1ccc(S(=O)(=O)C(CNC(=O)C(=O)NCCc2ccc(Cl)cc2)c2ccco2)cc1` (centres undefined), inactive: -1.2%.

Regarding `CCn1cc(C(=O)N2CCN(c3ccccc3)CC2)c(=O)c2cc(S(=O)(=O)N(C)C)ccc21`, the activation is inactive: 7.11%. Under `Cc1ccc(Nc2nc(N)nc(CSc3nc4ccccc4s3)n2)cc1` stands active: 82.9%; under `COc1ccc(C(CNC(=O)c2oc3cc(C)c(C)cc3c2C)N2CCCCC2)cc1` (centres undefined), inactive: 6.91%; under `O=C(Cc1ccc(F)cc1)NCCc1csc2nc(-c3ccccc3F)nn12`, active: 61.7%. In the case of `COc1ccc(CCNS(=O)(=O)c2c(C)nc3sccn3c2=O)cc1OC` it was inactive: -3.55%. As for `Cc1c2cnn(CC(=O)NCc3ccc(Cl)cc3)c(=O)c2c(C)n1Cc1ccc(F)cc1`, the activation was inactive: 0.152%. With `Cc1cc(NS(=O)(=O)c2ccc(NC(=O)COc3ccccc3Br)cc2)no1`, the activation is inactive: 28.8%. In the case of `Cc1ccccc1Nc1nn2c(=O)c3ccc(C(=O)NCc4cccs4)cc3nc2s1` it was inactive: -6.92%; in that of `Cc1cc(C)cc(NC(=O)CSc2ccc(-c3cccs3)nn2)c1`, inactive: -9.28%; in that of `CCN(CCCNC(=O)c1cc2c(=O)n(C)c3ccccc3c2s1)c1ccccc1`, active: 70.3%. With `CCc1ccccc1Nc1nn2c(=O)c3ccc(C(=O)NC(C)C)cc3nc2s1`, the activation is inactive: 2.75%. On to `O=C(Cn1c(=O)n(Cc2ccco2)c(=O)c2oc3ccccc3c21)Nc1ccccc1`, for which the activation was inactive: -1.91%. Turning to `COc1cc(NC(=O)C2CCN(c3cnccn3)CC2)cc(OC)c1`, the activation was inactive: -34.1%. As for `COc1ccccc1N1CCN(C(=O)C2CCN(S(=O)(=O)c3cn(C)cn3)CC2)CC1`, the activation was inactive: -5.08%. With `COc1ccc(-c2cc(=O)c3c(O)cc(O[C@@H]4O[C@H](CO[C@@H]5O[C@@H](C)[C@H](O)[C@@H](O)[C@H]5O)[C@@H](O)[C@H](O)[C@H]4O)cc3o2)cc1O`, the activation is inactive: 11.7%. Under `COc1ccccc1NC(=O)CN1C(=O)C(c2ccc(F)cc2)=NC12CCCCC2` stands inactive: -32.1%. Under `CCOCCCNC(=O)c1ccc2c(=O)n(CCc3ccccc3)c(=O)[nH]c2c1` stands inactive: -3.9%; under `CCc1ccc2oc(-c3cc(NC(=O)c4cc(OC)c(OC)c(OC)c4)ccc3O)nc2c1`, inactive: 10.7%. In the case of `COc1cccc(N2CCN(C(=O)c3cnn(-c4ccccc4Cl)c3C3CCN(C(=O)OC(C)(C)C)CC3)CC2)c1` it was inactive: -32.1%; in that of `COc1cccc(NC(=O)C2CCC(CNS(=O)(=O)c3csc(C(N)=O)c3)CC2)c1` (centres undefined), inactive: 5.98%. Consider `CC(=O)c1ccc(NC(=O)CSc2nc(=O)n(Cc3ccccn3)c3c2CCC3)cc1`, for which the activation was inactive: -2.67%. As to `CCOC(=O)Cc1ccc(NC(=O)NC(C)c2c(-n3cccc3)sc(C)c2C)cc1` (centres undefined), the activation is inactive: -22.9%. Under `COc1ccc(-c2onc(C)c2C)cc1S(=O)(=O)NCCc1ccccc1` stands inactive: 3.28%; under `Oc1c(C(c2ccccc2)N2CCCC2)sc2nc(-c3ccco3)nn12` (centres undefined), inactive: -12.6%.

Take `CCOC(=O)c1c(C)[nH]c(CCC(=O)NCc2cc(OC)c(OC)c(OC)c2)c1C`: the activation was inactive: -11.3%. For `COc1cc(-n2c(=O)c3ccccc3n(Cc3cccc(Cl)c3)c2=O)cc(OC)c1OC`, the activation was inactive: -2.21%. For the molecule `COc1ccc(CCN2C(=O)N(c3cccc(OC)c3)C(=O)C2CC(=O)Nc2ccccc2)cc1` (centres undefined), the activation is inactive: -4.91%. For `Cc1cc2oc(=O)c(CC(=O)O)c(C)c2c2occ(-c3ccccc3)c12`, the activation is inactive: 7.87%. In the case of `Cc1ccc(C)c(Cn2c(=O)n(-c3ccccc3)c(=O)c3c4c(sc32)CCCC4)c1`, the activation was inactive: -15.2%. In the case of `COc1ccc(CNC(=O)CN2C(=O)CCn3nc(-c4cn(C)c5ccccc45)cc32)cc1` it was inactive: 24.1%; in that of `CCNC(=O)CC1C(=O)N(c2ccc(C)cc2)C(=O)N1CCOC` (centres undefined), inactive: -3.61%. In the case of `O=C(c1ccc2c(c1)N(Cc1cccc(Cl)c1)C(=O)c1ccccc1S2=O)N1CCC(Cc2ccccc2)CC1` (centres undefined) it was inactive: -27.4%.

`CC[N+](CC)(CC)CCOC(=O)C(C1CCCC1)C1CCCC1`: the activation was inactive: 5.39%.

Regarding `O=C(c1cccc([N+](=O)[O-])c1)N1CCN(c2ccc(Nc3ccccc3)nn2)CC1`, the activation is inactive: -23.5%. In the case of `COc1nnc(-c2ccc(N3CCCCC3)c(NC(=O)c3ccc(C)cc3)c2)c2ccccc12`, the activation was inactive: 12.3%. Under `CCn1nc(C)c2c(-c3ccccc3)cc(=O)n(C(C)C(=O)NCCc3ccc(Cl)cc3)c21` (centres undefined) stands inactive: -21.5%; under `O=S(=O)(c1ccc(-c2cnc(C3CC3)o2)cc1)N1CCN(c2ccc(F)cc2)CC1`, inactive: 1.99%; under `CCOc1ccc(NC(=O)CCCn2c(C)c3cnn(-c4ccccc4)c(=O)c3c2C)cc1`, inactive: -33.6%.

Take `CCOc1cccc(CNCCCSc2nnnn2C)c1`: the activation is inactive: 3.85%. Under `COc1ccc(OC)c(NC(=O)CSC2=Nc3ccccc3C3=NC(CC(=O)NCCc4ccccc4)C(=O)N23)c1` (centres undefined) stands inactive: -6.84%; under `COc1ccc(S(=O)(=O)n2nc(C)c(S(=O)(=O)N3CCCCCC3)c2C)cc1C`, inactive: -8.64%.
